Data published in PubChem BioAssay AID485297 (National Center for Advancing Translational Sciences (NCATS), 2010).
Out of some 320,000 compounds screened, about 9,100 (2.8%) were called active. The inconclusive results got no clear call from the source; some entries with a clear call stand among them for comparison. Calls come from the whole dose curve; as a rule, active = well fitted activation curve with a large enough effect; inconclusive = small, poorly fitted or top-dose-only effect; inactive = no such curve, though single readings can be large or run the other way. No potency is given beside an inconclusive call; the fits are too rough.

test: qHTS Assay for Rab9 Promoter Activators; settings: Huh7 Rab9 promoter-luciferase reporter, luminescence, 24 h; series mostly up to 9.22 µM; activation, negative = inhibition: at the top concentration; note: nearly all actives have a fitted effect of over 60% in size; for activation, negative = inhibition: % of control where 0% means no effect
Text: NIH Chemical Genomics Center [NCGC] NIH Molecular Libraries Probe Production centers Network [MLPCN] MLPCN Grant: MH089537-01 Assay Submitter (PI): Yiannis A. Ioannou NCGC Assay Overview: Niemann Pick Type C (NPC) is a rare neurodegenerative lipidosis that is characterized by lipid storage in the endosomal/lysosomal system. Treatment modalities for this devastating disease are currently non-existent due to the severe obstacles associated with accessing the central nervous system with proteins or genes (Ioannou, 2000). We have developed a new paradigm, termed "Orphan Receptor Bypass Therapy" (ORByT), to address these disorders. This paradigm posits the existence of endogenous "suppressor" proteins whose expression can dramatically improve LSD pathogenesis. The goal is the identification/discovery of small chemical compounds that can modulate the expression of these proteins and provide a new treatment modality for these devastating disorders. One such protein whose overexpression reverses aspects of the NPC phenotype is Rab9. We have developed and optimized a cell based luciferase reporter assay in 1536 well format for the identification of up-regulators of the Rab9 promoter.
The Rab9 promoter is cloned in front of the luciferase reporter gene, therefore […] promoter activation results in luciferase expression. Frozen stock of the Rab9 promoter transfected Huh7 cells were obtained from the laboratory of Dr. Yiannis Ioannou (The Mount Sinai School of Medicine, New York, NY). Cells were propagated and maintained at NCGC in medium containing RPMI-1640 supplemented with 10% FBS, 2mM L-glutamine, and 50ug/ml penicillin/streptomycin. Cells were harvested in and plated for assays in OP-MEM I reduced-serum medium supplemented with 10% FBS. The Amplite luciferase reporter gene assay kit was purchased from ABD Bioquest and prepared/stored according to manufacturers recommendations. qHTS Assay Setup: 1.Dispensed 5ul of Huh7 cells stably expressing Rab9-luciferase at a density of 1500 cells per well 1536-well plates. 2.Incubate cells at 37C, 5% CO2, and 95% humidity for 2 hours. 3.Transferred 23nl per well of compound in DMSO solution. 4.Incubated at 37C, 5% CO2, and 95% humidity for 24 hours. 5.Dispensed 3ul per well of Amplite reagent(ABD Bioquest) per well. 6.Incubate at ambient for 10 minutes. 7.Read using the luminescence protocol on the ViewLux plate reader (Perkin Elmer).
Potency is the fitted concentration of half-maximal effect; tags give direction and shape of the fitted curve.

| SMILES | Potency | activation, negative = inhibition |
| --- | --- | --- |
| O=C(O)/C=C/C(=O)N1CCN(c2cccc(Cl)c2)CC1 | inconclusive [activator, single point] |  |
| Cc1ccc(CNS(=O)(=O)c2ccc3c(c2)n(C)c(=O)c(=O)n3C)cc1 |  | inactive: -4.72% |
| CN(C(=O)CSc1nnc(-c2ccccc2)c(-c2ccccc2)n1)C1CCS(=O)(=O)C1 (centres undefined) | inconclusive [activator, single point] |  |
| COc1ccc(Nc2nnc(SCC(=O)N3CCCC3)s2)cc1 |  | inactive: 1.34% |
| Cc1c(C(=O)Nc2nnc(C3CC3)s2)oc2ccccc12 | active: 2.24 µM |  |
| O=C1c2ccccc2C(O)N1c1ccc(Cl)cc1 (centres undefined) | inconclusive [activator, single point] |  |
| CC(Cc1cccs1)NC(=O)NC1CCCCC1 (centres undefined) | inconclusive [activator, partial curve] |  |
| COCC(=O)Nc1nc(-c2ccc([N+](=O)[O-])cc2)cs1 | inconclusive [activator, single point] |  |
| CCOC(=O)CCc1c(C)c2ccc(OC3CCCCC3=O)c(C)c2oc1=O (centres undefined) | inconclusive [activator, single point] |  |
| O=C(COc1ccc2c(c1)OCO2)Nc1ccccc1F | inconclusive [activator, single point] |  |
| COc1ccc(NC(=O)c2ccco2)cc1NC(=O)c1cccc(F)c1 |  | inactive: -3.64% |
| Cc1ccc(-c2nc(-c3ccncc3)no2)c(Cl)c1 | inconclusive [activator, partial curve, poor fit] |  |
| Cc1ccc(/C=N\NC(=O)CCc2n[nH]c(=O)[nH]c2=O)o1 |  | inactive: 5.81% |
| CC(C)=N/N=c1\scc(C)n1Cc1ccco1 |  | inactive: -0.561% |
| O=C1c2ccccc2CN1c1ccccc1 | active: 2 µM |  |
| CCOC(=O)c1cc2c(nc1NC(=S)NCc1ccccc1)CCCC2 | inconclusive [activator, partial curve] |  |
| CC(C)(C)Cc1nnc(NC(=O)c2ccc([N+](=O)[O-])cc2)s1 | inconclusive [activator, single point] |  |
| CC(OC(=O)c1ccc2c(c1)OCCO2)C(=O)c1ccccc1 (centres undefined) | active: 0.501 µM |  |
| Oc1ccc(Nc2nc(-c3ccc4ccccc4c3)cs2)cc1 | inconclusive [activator, single point] |  |
| Cc1ccc(OCCCn2c(CO)nc3ccccc32)cc1 | inconclusive [activator, single point] |  |
| COc1ccc(C2CC(c3cccs3)=Nc3ccccc3S2)cc1 (centres undefined) | inconclusive [activator, single point] |  |
| Cc1occc1C(=O)Nc1sc2c(c1C(N)=O)CCCCC2 | inconclusive [activator, single point] |  |
| CC(C)Oc1ccc(C(=O)Nc2ncn[nH]2)cc1 | inconclusive [activator, single point] |  |
| Cc1ccc(OCC(=O)Nc2ccc(-c3nc4ncccc4o3)cc2)cc1 | inconclusive [activator, single point] |  |
| O=c1cc(CSCc2ccc(Cl)cc2)[nH]c(=O)[nH]1 | inconclusive [activator, single point] |  |

| SMILES | Potency | activation, negative = inhibition |
| --- | --- | --- |
| Cc1cccc(NC(=O)C2COc3ccccc3O2)c1 (centres undefined) | inconclusive [activator, single point] |  |
| O=[N+]([O-])c1ccc(Oc2ccc(-c3cnc4ccccc4n3)cc2[N+](=O)[O-])cc1 |  | inactive: -6.34% |
| Cc1cccc2c(C(=O)N3CCN(c4ccccc4)CC3)cc(-c3ccncc3)nc12 |  | inactive: -15.9% |
| On1c(-c2ccc(Cl)cc2)nc2ccccc21 | inconclusive [activator, partial curve, poor fit] |  |
| O=C(O)c1cccc(NC(=S)NC(=O)c2ccc3ccccc3c2)c1 | inconclusive [activator, full curve, poor fit] |  |
| O=C(Nc1ccc(Cl)cn1)c1ccc2ccccc2n1 | inconclusive [activator, partial curve] |  |
| CC(C)(C)Cc1nnc(NC(=O)c2ccc3c(c2)OCO3)s1 | active: 2.24 µM |  |
| CSCCNC(=O)c1ccc(C(C)(C)C)cc1 | active: 3.98 µM |  |
| COc1cccc(/C=N/NC(=O)NC2CCCCC2)c1O | inconclusive [activator, partial curve] |  |
| CCOCC(=O)Nc1ccc(OCc2ccccc2)cc1 | inconclusive [activator, single point] |  |
| CC1CCCC(NC(=O)c2cccc(N3CCCC3=O)c2)C1C (centres undefined) | inconclusive [activator, single point] |  |
| COc1ccc(C(=O)Nc2nc3ccccc3s2)cc1 | active: 0.282 µM |  |
| O=C(CSc1nnc(NC(=O)c2ccco2)s1)Nc1ccccc1Cl |  | inactive: 4.22% |
| CC(C)(C)C(=O)N1CCN(c2nc3ccc(Br)cc3s2)CC1 | inconclusive [activator, partial curve] |  |
| CCOc1c(Cl)cc(C(=O)Nc2ccccc2C(=O)O)cc1Cl | inconclusive [activator, partial curve] |  |
| O=C(c1ccc(-c2ccc([N+](=O)[O-])cc2Cl)o1)N1CCOCC1 | inconclusive [activator, partial curve] |  |
| Clc1ccc(N/N=C/c2ccncc2)cc1Cl | inconclusive [activator, single point] |  |
| C/C(=N\Nc1ccc(F)cc1F)c1ccc(N2CCOCC2)cc1 | inconclusive [activator, partial curve] |  |
| Cc1ccc(/C=N/NC(=O)c2ccc3c(c2)OCCO3)s1 | inconclusive [activator, partial curve] |  |
| CNC(=O)/C(C#N)=C/c1ccc(-c2ccc(OC)cc2[N+](=O)[O-])o1 | inconclusive [activator, partial curve] |  |
| CC(=O)N(/N=C1/C(=O)Nc2ccccc21)c1ccccc1 | inconclusive [activator, partial curve] |  |
| COc1ccc(C(=O)NNC(=S)Nc2ccccc2)cc1 | active: 0.562 µM |  |
| COc1cccc(CNc2ccc3c(c2)nc(C)n3C)c1OC | inconclusive [activator, single point] |  |
| CC(=O)c1cnc(Nc2ccc(C)cc2)s1 | inconclusive [activator, single point] |  |
| O=C(NC(=S)Nc1cccc2[nH]ncc12)c1ccccc1 | active: 2.51 µM |  |

| SMILES | Potency | activation, negative = inhibition |
| --- | --- | --- |
| O=C(NC(=S)Nc1ccc2c(c1)OCO2)c1ccc(Cl)cc1 | active: 2.24 µM |  |
| O=C(NCCCN1CCCC1=O)C(=O)Nc1cccc(F)c1 | active: 3.16 µM |  |
| O=C1c2ccccc2-n2c1nc1ccccc1c2=O | inconclusive [activator, partial curve, poor fit] |  |
| Cn1c(=O)c(C(=O)NCC2CCCO2)c(O)c2ccccc21 (centres undefined) | inconclusive [activator, partial curve] |  |
| CCCCn1c(N)c(N(CCC(C)C)C(=O)c2cc(S(=O)(=O)N3CCOCC3)ccc2F)c(=O)[nH]c1=O |  | inactive: 1.53% |
| CN(C)S(=O)(=O)Oc1cccc(C(=O)Nc2ccc([N+](=O)[O-])cc2)c1 | inconclusive [activator, partial curve] |  |
| Cc1cc(=O)n2nc(N3CCCC(C(=O)NCc4cccc(Br)c4)C3)sc2n1 (centres undefined) | inconclusive [activator, single point] |  |
| O=C(COc1ccccc1F)OCC(=O)N1CCc2ccccc21 | inconclusive [activator, single point] |  |
| COc1ccc(NC(=O)c2sc3nc(C)cc(C)c3c2N)cc1 | active: 1.26 µM |  |
| COc1ccc(C(=O)COC(=O)c2cccc(-n3cnnn3)c2)c(OC)c1 | active: 3.55 µM |  |
| N#Cc1ccc2c(c1)C[C@]1(CCCCN3C(=O)c4ccccc4C3=O)Oc3c(c(=O)oc4ccccc34)C2O1 |  | inactive: -0.131% [at 1.84 µM] |
| COC(=O)C1=C(C)N(CCc2c[nH]c3ccccc23)C(=O)C1 | inconclusive [activator, single point] |  |
| CCC(=O)Nc1ccc(C(=O)Nc2cccc(OC)c2)cc1 | inconclusive [activator, single point] |  |
| COc1cccc(OCc2cc(/C=N/NC(=O)c3ccn[nH]3)ccc2OC)c1 |  | inactive: 13.3% |
| Fc1ccccc1/C=C/c1ccc2ccccc2n1 | active: 2.24 µM |  |
| O=C(CSCc1ccco1)c1ccc(Cl)s1 | inconclusive [activator, single point] |  |
| Cc1ccc(C(=O)Nc2nc3ccc(S(C)(=O)=O)cc3s2)s1 | active: 1.41 µM |  |
| CCc1ccc(C(=O)CSc2ncn[nH]2)cc1 | inconclusive [activator, partial curve] |  |
| Cc1cc(-c2nnc3sc(C4CCCCC4)nn23)n[nH]1 | inconclusive [activator, partial curve] |  |
| COc1ccc(C(=O)O/N=C(\N)Cc2ccc(Cl)cc2)cc1OC |  | inactive: -4.47% |
| CCC(=O)Nc1cccc(-c2cnc3ccccc3n2)c1 | inconclusive [activator, partial curve] |  |
| CC(=O)Nc1cccc(/C(C)=N/NC(=O)c2ccc3c(c2)OCO3)c1 | inconclusive [activator, single point] |  |
| Cc1c(C(=O)Nc2nc3ccccc3[nH]2)cccc1[N+](=O)[O-] | inconclusive [activator, single point] |  |
| CC(C)(C)c1ccc(-c2noc(CCC(=O)Nc3cccnc3)n2)cc1 |  | inactive: -36.8% |
